Test results reported in PubChem BioAssay AID1030 (National Center for Advancing Translational Sciences (NCATS), 2008).
Hit rate of the full screen: of about 220,000 compounds, about 16,000 (7.3%) were called active. Inconclusive results, whose numbers are uncertain, are shown with a selection of clear calls. Calls follow the shape of the dose curve; as a rule, active = well fitted inhibition curve with a large enough effect (not every such curve was filed as active); inconclusive = small, poorly fitted or top-dose-only effect, or another doubt; inactive = no such curve, though single readings can be large or run the other way. Where the call is inconclusive, the potency comes from a doubtful curve fit.

Molecular target: Aldehyde dehydrogenase 1A1 (Homo sapiens) (UniProt P00352)
Chain of UniProt P00352 (P00352 whole entry, looked up): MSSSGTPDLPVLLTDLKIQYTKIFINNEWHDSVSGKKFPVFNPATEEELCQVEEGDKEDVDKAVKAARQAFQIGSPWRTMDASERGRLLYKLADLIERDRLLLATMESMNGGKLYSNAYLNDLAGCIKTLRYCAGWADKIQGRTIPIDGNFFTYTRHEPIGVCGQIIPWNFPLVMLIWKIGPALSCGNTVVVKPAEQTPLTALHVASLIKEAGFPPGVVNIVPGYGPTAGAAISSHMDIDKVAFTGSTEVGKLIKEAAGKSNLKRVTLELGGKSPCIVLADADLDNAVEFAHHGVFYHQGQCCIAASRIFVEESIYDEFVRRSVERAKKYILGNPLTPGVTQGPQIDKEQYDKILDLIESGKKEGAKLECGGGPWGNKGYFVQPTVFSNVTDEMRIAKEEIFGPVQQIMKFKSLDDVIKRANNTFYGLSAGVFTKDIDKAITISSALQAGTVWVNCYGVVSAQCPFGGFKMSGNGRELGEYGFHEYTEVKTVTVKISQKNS
Test: qHTS Assay for Inhibitors of Aldehyde Dehydrogenase 1 (ALDH1A1);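 as to activity, negative = inhibition: plate controls were no enzyme wells and a reference inhibitor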
Settings: Purified ALDH1A1, NADH fluorescence, propionaldehyde substrate; series mostly up to 75.3 µM
Potency is read from the fitted curve at half-maximal effect; tags tell the direction and shape of the fitted curve.

Potency, active:
O=C(Cc1ccc(S(=O)(=O)N2CCCC2)s1)Nc1nc2c(s1)CCCC2 10 µM
COCCn1c(=O)c(CCc2ccccc2)nc2cnc(OCc3ccccc3)nc21 25.1 µM
Cc1cc(C)c2c(=O)n(CC(=O)N3CCC(N4CCCCC4)CC3)sc2n1 12.6 µM
O=S(=O)(N/N=C1/CCCc2ccccc21)c1ccc(Br)cc1 14.1 µM

Potency, inconclusive:
CCn1c(SCC(=O)N2CCCC2)nnc1-c1ccc(S(=O)(=O)N2CCCCCC2)cc1 31.6 µM [inhibitor, single point]
O=C(O)CCn1cc(/C=C\C(=O)c2ccc(Cl)cc2)c(-c2cccc(Br)c2)n1 22.4 µM [inhibitor, partial curve]
Cc1ccc(S(=O)(=O)N(C)C)cc1NC(=O)C(C)Sc1ccccc1 (stereo not given) 22.4 µM [inhibitor, partial curve]
CCOC(=O)c1nn(-c2ccc(F)cc2)c2nc(-c3ccccc3)c(C#N)c(=O)n12 31.6 µM [inhibitor, partial curve]
CCC(=O)N(Cc1cc2cc(OC)ccc2[nH]c1=O)c1ccc(C)cc1C 28.2 µM [inhibitor, partial curve]
COc1ccc(NC(=O)CN(C)CC(=O)Nc2ccc(Cl)cc2F)cc1 39.8 µM [inhibitor, single point]
CCN(CC)S(=O)(=O)c1ccc(NS(=O)(=O)c2ccc(OC)c([N+](=O)[O-])c2)cc1 17.8 µM [inhibitor, partial curve]
O=C(N/N=C/c1ccc2ncccc2c1)c1ccco1 35.5 µM [inhibitor, single point]
COc1ccccc1/C=C/C=N/n1c(C)nnc1C 39.8 µM [inhibitor, single point]
CCN1CCN(CCCNC(=O)c2cc3cc4ccc(OC)cc4nc3o2)CC1 25.1 µM [inhibitor, partial curve]
COc1ccc(-c2ccc(SCC(=O)N3CCCC3)nn2)cc1OC 35.5 µM [inhibitor, single point]
Cc1cccc(S(=O)(=O)Nc2nc3ccccc3nc2NCC2CCCO2)c1 (stereo not given) 39.8 µM [inhibitor, single point]
O=C(Nc1ccc(-c2noc(CCc3ccccc3)n2)cc1)c1cccnc1 28.2 µM [inhibitor, partial curve]
CCNc1ncc2nc(-c3ccc(F)cc3)c(=O)n(CCc3ccccc3)c2n1 3.16 µM [inhibitor, partial curve]
O=C(c1ccc(CNS(=O)(=O)c2cccc(C(F)(F)F)c2)cc1)N1CCOCC1 14.1 µM [inhibitor, partial curve]
CCCc1[nH]nc2c1C(c1ccc(OC)c(Cn3nc(C)c(Br)c3C)c1)C(C#N)=C(N)O2 (stereo not given) 7.94 µM [inhibitor, full curve]
O=S(=O)(c1ccccc1)N1CCC2(CCCN(c3ccccn3)C2)CC1 39.8 µM [inhibitor, single point]
CCc1ccccc1NC(=O)CSc1nnc([C@@H](N)Cc2ccccc2)o1 39.8 µM [inhibitor, single point]
Cc1noc(C)c1-c1nccc(N2CCN(C)CC2)n1 39.8 µM [inhibitor, single point]
COc1ccccc1C(=O)Nc1nc2nc(-c3ccccc3)cc(=O)n2[nH]1 39.8 µM [inhibitor, single point]
COC(=O)C1CN(S(=O)(=O)c2ccc(C)cc2)CCN1S(=O)(=O)c1ccc(C)cc1 (stereo not given) 22.4 µM [inhibitor, single point]
CCOC(=O)C(=CNc1cc(C)nn1-c1ccc(Cl)cc1)C(=O)OCC 35.5 µM [inhibitor, single point]
O=C(/C=C/c1ccccc1)N(c1ccccn1)C1CCCCC1 14.1 µM [inhibitor, single point]
O=C(c1ccccc1)N1CCN=C1SCc1ccc([N+](=O)[O-])cc1 39.8 µM [inhibitor, single point]
CCCCCn1c(=O)[nH]c2cc(C(=O)NCc3ccco3)ccc2c1=O 3.98 µM [inhibitor, full curve]
Cc1sc2ncnc(Sc3ccccc3C(=O)Nc3ccccc3Cl)c2c1C 39.8 µM [inhibitor, single point]
Cc1ccc(-c2cc(-c3ccc4c(c3)OCO4)c(C#N)c(N)n2)o1 20 µM [inhibitor, partial curve]
O=C(NCc1ccco1)c1ccc2c(c1)C(=O)N(C1CCCCC1)C2=O 0.794 µM [inhibitor, full curve]
O=C(c1ccccc1)N1CCSC1=S 44.7 µM [inhibitor, single point]
Clc1ccc2c(c1)[C@H]1OCC[C@H]1[C@@H](c1ccco1)N2 28.2 µM [inhibitor, partial curve]

Potency, inactive:
O=C(NCc1ccccn1)NC1CCCCC1
Nc1[nH]ncc1N=Nc1ccc(Cl)cc1
O=C(O)c1ccn(COc2ccc(Br)cc2)n1
Cc1[nH]c2ccccc2c1/C=N/Nc1nc(Nc2ccc(F)cc2)nc(N2CCOCC2)n1
c1ccc(-n2nnnc2Cc2nnnn2-c2ccccc2)cc1
CCOC(=O)c1cnc2ccccc2c1Nc1cc(C(=O)O)ccc1C
Cc1cccc(Nc2cc(C)c3c(O)cccc3n2)c1C
COc1ccc2cc(C3(C)NC(=O)NC3=O)ccc2c1 (stereo not given)
CNc1ccc(C(=O)c2ccccc2C(=O)O)cc1[N+](=O)[O-]
CCC(=O)N1CCN(c2ccccc2NC(=O)COc2cc(C)ccc2C(C)C)CC1

activity, negative = inhibition, inactive:
C(#CC1C=CC2OC(c3ccccc3)OCC2O1)c1ccccc1 (stereo not given) 15.5% [at 13.5 µM]
